Measured values published in the supplement of paper PMC3334620.
Whole data set: some 33,000 sequences, median “E-score (-0.5 to 0.5)” near -0.032, cut for the highest 2% near 0.36. This is one part of the list.

molecular target: T1, Sko1 (UniProt Q02100); experiment: PBM E-score (8-mer binding enrichment) (E-score (-0.5 to 0.5)); higher = stronger / more preferred TF binding; most listed sequences are background and not binding sites; conditions: protein concentration: 200 nM; construct: GST-full length
T1 sequence: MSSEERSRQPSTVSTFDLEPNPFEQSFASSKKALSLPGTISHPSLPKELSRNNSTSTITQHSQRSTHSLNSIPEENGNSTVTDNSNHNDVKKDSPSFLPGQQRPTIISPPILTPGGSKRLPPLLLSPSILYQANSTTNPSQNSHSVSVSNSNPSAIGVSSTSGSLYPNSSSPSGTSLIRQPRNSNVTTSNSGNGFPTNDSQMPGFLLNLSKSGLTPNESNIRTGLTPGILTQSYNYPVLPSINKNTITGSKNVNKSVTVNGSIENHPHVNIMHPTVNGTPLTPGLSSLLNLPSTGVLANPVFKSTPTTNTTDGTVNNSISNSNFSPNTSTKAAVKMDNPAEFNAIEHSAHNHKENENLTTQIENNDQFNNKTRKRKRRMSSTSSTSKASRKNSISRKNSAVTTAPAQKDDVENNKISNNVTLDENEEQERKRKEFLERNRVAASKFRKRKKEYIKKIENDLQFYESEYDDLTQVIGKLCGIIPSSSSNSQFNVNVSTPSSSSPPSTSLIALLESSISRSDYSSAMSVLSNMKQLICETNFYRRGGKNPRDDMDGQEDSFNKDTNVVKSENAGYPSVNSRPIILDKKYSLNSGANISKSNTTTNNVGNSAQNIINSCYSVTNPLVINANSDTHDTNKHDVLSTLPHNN
Protocol: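 Universal 'all 10-mer' protein binding microarrays (Agilent AMADID 015681) probed with GST-tagged S. cerevisiae TFs (full-length or DBD) made by in vitro transcription/translation (PURExpress), about 100-200 nM. Bound TF was detected with fluorescent anti-GST. Each ungapped 8-mer (which stands for itself and its reverse complement) is scored by the PBM enrichment score (E-score), a modified Wilcoxon-Mann-Whitney statistic from -0.5 to +0.5, computed with the Universal PBM Analysis Suite. Scale: above 0.35 generally sequence-specific binding.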

| Sequence | PBM E-score |
| --- | --- |
| CCATATAG | -0.184 |
| GGATCATA | -0.086 |
| AAATATAC | 0.182 |
| AACTAGTT | -0.0308 |
| GTTCTCCA | -0.0853 |
| CGACCAAA | 0.102 |
| CGTATGGA | 0.245 |
| CAGACGAC | -0.123 |
| ACGTTAGA | 0.265 |
| CAAACGCC | -0.106 |
| AAGTCACA | 0.0509 |
| GGAATGAC | 0.3 |
| GGTTCCCA | -0.172 |
| CGCCGTTA | -0.0842 |
| CCCAACAG | -0.301 |
| GTCACGAC | 0.251 |
| ATAACCAC | 0.0684 |
| ATTGGAGC | -0.08 |
| AAATCAGT | -0.00401 |
| ATGTCTAA | 0.198 |
| AGTGATAC | 0.107 |
| GAACAGGA | 0.0482 |
| CCTCCACA | -0.0717 |
| CAAGTTGC | 0.12 |
| GTGCCTTA | -0.0625 |

| Sequence | PBM E-score |
| --- | --- |
| AGTACCTC | -0.132 |
| GTTTAACA | 0.0101 |
| AGGTCGAT | 0.0361 |
| GGCTTCCC | -0.29 |
| GATACGAC | 0.166 |
| ACTCTTAG | -0.175 |
| GATCTCCA | -0.0784 |
| GAACCAAC | 0.0178 |
| ATCCGCCA | -0.115 |
| GATATCGA | 0.0983 |
| ACGTTCAT | 0.282 |
| GACACCCA | -0.174 |
| GGGCCAGA | -0.278 |
| AAGAATCT | -0.0424 |
| AAACCGTC | -0.0343 |
| ACGTAAAC | 0.459 |
| TACTTCGA | 0.161 |
| GGGCTAGA | -0.235 |
| AATGCTAT | 0.106 |
| ACTCCTCC | -0.19 |
| AGGCATGA | 0.153 |
| TCGAAAAA | 0.148 |
| AAGCCTCA | -0.252 |
| TCTCCTAA | 0.141 |
| AACAGCGC | -0.119 |

| Sequence | PBM E-score |
| --- | --- |
| GGTTCCAA | -0.0929 |
| ACAACTAG | -0.00944 |
| CAAATGCC | -0.166 |
| CCGAGCGA | -0.146 |
| GGGATAAC | -0.0341 |
| AATAGGCT | 0.0268 |
| AAGACCCG | -0.105 |
| CTAATTGC | 0.104 |
| CAGCGCCC | -0.192 |
| CCTGTTGC | -0.125 |
| GTCGGCAA | -0.215 |
| GGGTCTCA | -0.297 |
| AGCTGCAA | -0.152 |
| ACCGACTA | -0.22 |
| GACCCCGA | -0.198 |
| GGGTGGAC | -0.23 |
| CGATTTGA | -0.0299 |
| GAACTCCC | -0.1 |
| ACTTTATC | 0.0288 |
| GGGCCTCA | -0.189 |
| GGAGCTTA | -0.135 |
| AATAGGTC | 0.128 |
| ACCGATTA | -0.0449 |
| AATAGCGA | 0.137 |
| GCCCGGAC | -0.355 |

| Sequence | PBM E-score |
| --- | --- |
| AAACCACT | 0.00368 |
| CTGATTGA | -0.0403 |
| GAACAGGC | -0.252 |
| CCTCCGAA | -0.243 |
| AATACCTG | -0.0743 |
| ACTCGCTA | -0.136 |
| GCACTTCC | -0.231 |
| AATGAGGC | -0.169 |
| GCAATCAC | 0.0788 |
| ATTCCCAC | -0.0577 |
| AAAGGCGG | -0.0355 |
| TAGGCAAA | -0.0439 |
| ACATTTAA | 0.165 |
| GCCCGCAC | -0.0286 |
| ACGATATG | 0.303 |
| ATGTACGC | 0.254 |
| CTGACTCC | -0.23 |
| GCACGGTA | -0.0606 |
| CTCTTAAC | -0.0409 |
| ACGAGAAC | 0.165 |
| ACCTGATC | -0.128 |
| TATCAAGA | 0.173 |
| AACGCTTG | -0.111 |
| AAACCCTC | -0.024 |
| TGTATAAA | 0.132 |

| Sequence | PBM E-score |
| --- | --- |
| ACAGAACC | -0.146 |
| TACTATAA | 0.109 |
| CAGCAACC | -0.127 |
| CGAGAGCG | -0.206 |
| AACGATGA | 0.143 |
| GTTTACGA | 0.289 |
| ACCCATAT | 0.0692 |
| ACTCGGAG | -0.16 |
| CCGCTCCG | -0.269 |
| CAGGCGCG | -0.154 |
| AGTTCCTA | 0.209 |
| GCCATGGC | -0.182 |
| ACAGAAGC | -0.0522 |
| CTCCCAGA | -0.225 |
| AGCACCCA | -0.174 |
| GAGGGGGA | -0.155 |
| ATACGAAC | 0.256 |
| GCCTGGGA | -0.241 |
| ACTGATCG | -0.108 |
| CATCGAAC | 0.00604 |
| ACGGCAGA | -0.0578 |
| AAACTACA | 0.109 |
| ATCATGTG | 0.118 |
| AACTTAGT | -0.138 |
| ATAATGCG | 0.19 |

| Sequence | PBM E-score |
| --- | --- |
| GGCTCCCC | -0.256 |
| CGGGATAC | -0.257 |
| AATGAGAA | -0.032 |
| CCTGTACC | -0.317 |
| CCGACAAC | 0.0177 |
| CCTGTCAC | -0.0885 |
| ACCCACCT | -0.284 |
| AGTCGAAT | -0.2 |
| AGGTGGGC | -0.257 |
| AACCGTTC | -0.078 |
| CCCGAGGG | -0.252 |
| GTGAAGTA | 0.0702 |
| TATAACAA | 0.187 |
| ATTTCGTC | 0.343 |
| ATTGCACA | 0.0452 |
| CGCACGAC | 0.0225 |
| CGGGGAGC | -0.0693 |
| GAGAAGTA | 0.042 |
| AGTGTGAT | 0.17 |
| ACGCACAC | 0.345 |
| ATAAGCGA | -0.0228 |
| CGTCACAG | 0.438 |
| ATGCCCAA | -0.255 |
| ACGCGATC | 0.341 |
| GGCTTCAC | -0.149 |

| Sequence | PBM E-score |
| --- | --- |
| GCCGATGA | -0.199 |
| CGAGGACA | -0.144 |
| AGTCTGAT | -0.126 |
| GAGACACC | -0.131 |
| CATATAGA | 0.0798 |
| ATCTGGTG | 0.0771 |
| CTAAACGA | 0.00291 |
| CTTCTCGA | -0.08 |
| GACCTAAC | 0.131 |
| GGAAAGGA | -0.186 |
| AAGTGTGT | 0.153 |
| AACGCCGG | -0.208 |
| CGTCTATA | 0.0863 |
| ACAGTAGT | 0.0868 |
| GCGTAGAA | 0.178 |
| CACGACCC | -0.154 |
| ACTGTGTG | -0.114 |
| ATTTTTAC | 0.166 |
| AACCTAGT | -0.12 |
| ATGTTGTA | 0.226 |
| AGCTGCTG | -0.134 |
| CCGCCGGC | -0.123 |
